Data: PubChem BioAssay AID1745845 (National Center for Advancing Translational Sciences (NCATS), 2022)
About 2,600 (0.72%) of roughly 360,000 compounds were called active. This list was built around the results that the source calls inconclusive (neither active nor inactive); the mix of calls is not that of the screen. Calls come from the whole dose curve; as a rule, active = well fitted inhibition curve with a large enough effect; inconclusive = small, poorly fitted or top-dose-only effect; inactive = no such curve, though single readings can be large or run the other way. Where the call is inconclusive, the potency comes from a doubtful curve fit.

Assay: Primary qHTS for Inhibitors of ATXN expression; note: nearly all actives have a fitted effect of over 55% in size
Conditions: HEK-293 ATXN2-luciferase reporter, luminescence, 24 h; activity change, negative = inhibition: at 57 µM (top of the series)
Outline: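 qHTS (up to 57 uM final) was run with 24 h compound exposure of reporter cells at 37 °C. Each well was multiplexed: SteadyGlo luminescence measured ATXN2-luciferase expression after a fluorogenic Gly-Phe-AFC viability readout (25 uM final).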
% is set by controls: 0 for no effect and ±100 for the full control effect; potency is the fitted concentration of half-maximal effect; tags give direction and shape of the fitted curve.

SMILES | Potency | activity change, negative = inhibition
CCOc1ccccc1NC(=O)C1CCN(S(=O)(=O)Cc2ccccc2)CC1 | inactive | –
Cc1cccc(NC(=O)/C=C/c2ccc([N+](=O)[O-])s2)c1 | active: 8.91 µM | –
N=C1SCC(=O)N1c1ncc(Cc2ccc(F)cc2)s1 | inconclusive: 39.8 µM [inhibitor, single point] | –
Cc1cccc(N2CCN(C(=O)c3cn(C)c(=O)c4c3c3ccccc3n4C)CC2)c1C | inconclusive: 28.2 µM [inhibitor, partial curve, poor fit] | –
COC(=O)C[C@H]1c2cc(F)ccc2S(=O)(=O)N1c1ccccc1 | inactive | –
O=C(c1[nH]nc2c1CCc1ccccc1-2)N1CCN(Cc2ccc3c(c2)OCO3)CC1 | inactive | –
Cc1ccc(CCNC(=O)CCCn2nc(C)c3c(C)n(-c4ccc(C)cc4)nc3c2=O)cc1 | inconclusive: 22.4 µM [inhibitor, partial curve, poor fit] | –
CCCCOCCCNC(=O)C[C@@H]1C[C@@]2(C(=O)OC)CCCCC=C2N(CCC2=CCCCC2)C1=O | inconclusive: 31.6 µM [inhibitor, single point] | –
O=c1cc(-c2ccc(O)c(O)c2)oc2c1ccc1ccccc12 | inconclusive: 11.2 µM [inhibitor, partial curve, poor fit] | –
Cc1ccc(NS(=O)(=O)c2ccc(NC(=O)C(C)Sc3ccc(Cl)cc3)cc2)c(C)c1 (stereo not given) | inconclusive: 31.6 µM [inhibitor, single point] | –
CCc1ccc(OCC2c3cc(OC)c(OC)cc3CCN2C(=O)Cc2ccc(OC)c(OC)c2)cc1 (stereo not given) | inconclusive: 39.8 µM [inhibitor, single point] | –
CCOc1ccc(C(=O)C(CCC(CN(C)C)C(=O)c2ccc(OCC)cc2)CN(C)C)cc1 (stereo not given) | active: 5.62 µM | –
COc1cccc(C(=O)Oc2cc3c4c(c2)C(C)=CC(C)(C)N4C(=O)C3=O)c1 | inactive | –
COCc1cc(=O)[nH]c(SCCS(=O)(=O)c2ccc(Cl)cc2Cl)n1 | active: 20 µM | –
Cc1ccccc1N(C)C(=O)C1CCCN(c2ncnc3c2nc2n3CCCCC2)C1 (stereo not given) | inconclusive: 12.6 µM [inhibitor, partial curve, poor fit] | –
O=C(c1ccc(Cl)c([N+](=O)[O-])c1)N(Cc1ccc(Cl)cc1)C1CCS(=O)(=O)C1 (stereo not given) | inconclusive: 39.8 µM [inhibitor, single point] | –
CC(=O)c1c(C)[nH]c(C(=O)Nc2nc(C)cs2)c1C | inconclusive: 11.9 µM [inhibitor, partial curve, poor fit] | –
Cc1ccc(NC(=O)c2nc[nH]c2C(=O)N[C@@H](CCCCNC(=O)OC(C)(C)C)C(=O)OC(C)(C)C)cc1 | inconclusive: 39.8 µM [inhibitor, single point] | –
COc1ccc(C(=O)OCC(=O)Nc2ccc([N+](=O)[O-])cc2OC)c(O)c1 | inconclusive: 12.6 µM [inhibitor, single point] | –
CCOC(=O)Cc1csc(N/N=C/c2cccc([N+](=O)[O-])c2)n1 | inactive | –
COc1ccc(CNS(=O)(=O)c2ccc3c(c2)C(C)(C)C(=O)N3C)cc1OC | inactive | –
Cc1ccc(C)c(NS(=O)(=O)c2ccc3c(c2)CCCN3C(=O)C2CCC2)c1 | inconclusive: 35.5 µM [inhibitor, single point] | –

SMILES | Potency | activity change, negative = inhibition
CC(=O)Nc1nc(C)c(-c2csc(Nc3cccc([N+](=O)[O-])c3)n2)s1 | inconclusive: 28.2 µM [inhibitor, partial curve] | –
CCCN1Cc2cccc(C(=O)Nc3ccc(OC)cc3OC)c2C1=O | inactive | –
Cc1ccc(NC(=O)C2=C(O)CCn3c2nc2ccccc23)cc1 | inactive | –
O=C(Nc1ccc(O)c(-c2nc3ccccc3s2)c1)c1cc(=O)c2ccccc2o1 | inconclusive: 12.6 µM [inhibitor, partial curve, poor fit] | –
COc1cc(OC)c(NC(=O)C(C)n2nc(-c3ccc(C)c(C)c3)ccc2=O)cc1Cl (stereo not given) | inconclusive: 31.6 µM [inhibitor, single point] | –
Cc1cc(C)c(C#N)c(SCC(=O)c2cccs2)n1 | inactive | –
Cc1ccc([C@@H]2CC=C(C(=O)O)[C@H](c3ccc(Cl)cc3)N2S(=O)(=O)c2ccccc2C)cc1 | inactive | –
CCN(CC)C1=N/C(=C\c2ccc(OC)cc2)C(=O)N1c1ccccc1 | inactive | –
FC(F)C(F)(F)Oc1cccc(Nc2nccn3c(-c4cccc5ccccc45)cnc23)c1 | inactive | –
COc1ccc(CC(=O)Nc2cccc3ccccc23)cc1OC | inconclusive: 8.91 µM [inhibitor, partial curve, poor fit] | –
O=C(Nc1ccc(-c2ccc([N+](=O)[O-])cc2)cc1)c1ccccc1F | inconclusive: 10 µM [inhibitor, partial curve, poor fit] | –
COc1ccc(NC(=S)N(CCN2CCOCC2)Cc2ccccc2F)cc1 | inactive | –
O=C(C1CCCCC1)N1C[C@H](n2cc(-c3ccc(F)cc3)nn2)[C@@H](O)C[C@@H]1c1ccc(Cl)cc1 | inconclusive: 39.8 µM [inhibitor, single point] | –
CCOC(=O)c1c(NC(=O)COC(=O)Cn2cnc3ccccc32)sc(C)c1C | inconclusive: 22.4 µM [inhibitor, partial curve] | –
O=[N+]([O-])/C=C\c1ccc(N2CCOCC2)cc1 | inconclusive: 39.8 µM [inhibitor, single point] | –
Cc1nnc(N2CCC(C(=O)NCc3cccc(Cl)c3)CC2)c2nn(-c3ccccc3)c(C)c12 | inconclusive: 39.8 µM [inhibitor, single point] | –
CCc1ccccc1N1CC(c2nc3ccccc3n2CCC2CCCCC2)CC1=O (stereo not given) | inconclusive: 31.6 µM [inhibitor, partial curve, poor fit] | –
CCOc1ccc(S(=O)(=O)Nc2nc3ccc(OC)cc3s2)cc1 | inconclusive: 31.6 µM [inhibitor, partial curve, poor fit] | –
CCCCCCN1C[C@@H](n2cc(C3CC3)nn2)[C@H](O)C[C@@H]1c1ccc(OC)cc1 | inconclusive: 28.2 µM [inhibitor, single point] | –
CCNC(=O)C1CCCc2c1[nH]c1ccc(Cl)cc21 (stereo not given) | inconclusive: 5.32 µM [inhibitor, partial curve, poor fit] | –
CC(=O)/C(=N\Nc1ccc(Cl)cc1Cl)Sc1cccc2cccnc12 | inconclusive: 3.16 µM [inhibitor, single point] | –
COc1ccc(CN(CC(O)COCc2ccccc2)S(=O)(=O)c2ccccc2Br)cc1OC (stereo not given) | inconclusive: 31.6 µM [inhibitor, partial curve] | –

SMILES | Potency | activity change, negative = inhibition
CNC(=O)c1sc(N2N=C3/C(=C/c4ccccc4)CCCC3C2c2ccccc2)nc1C (stereo not given) | active: 12.6 µM | –
CCOC(=O)c1sc2nc(C)nc(NCc3ccc(Cl)cc3)c2c1C | inactive | –
N#Cc1ccc(CSc2nnc(-c3c[nH]c4ccccc34)n2-c2ccccc2)cc1 | inconclusive: 15 µM [inhibitor, partial curve] | –
COc1ccc(-n2nc3c(N4CCC(C(=O)NCC(C)c5ccccc5)CC4)nnc(C)c3c2C)cc1 (stereo not given) | inconclusive: 22.4 µM [inhibitor, single point] | –
CCOc1ccc(/C=C2\SC(=S)N(CCC(=O)O)C2=O)cc1 | inconclusive: 0.501 µM [inhibitor, full curve] | –
CCc1nc2ccc(C(=O)NCc3ccccc3OC)cn2c1N(C)Cc1ccc(OC)cc1 | inconclusive: 39.8 µM [inhibitor, single point] | –
COc1ccc(CNC(=O)C[C@H]2C[C@H](C(=O)N(C(C)C)C(C)C)[C@@]3(C)c4[nH]c5ccc(Cl)cc5c4CCN3C2=O)cc1OC | inconclusive: 31.6 µM [inhibitor, single point] | –
O=c1[nH]c(CN2CCN(S(=O)(=O)c3cccs3)CC2)nc2c(Br)cc(Br)cc12 | inconclusive: 21.2 µM [inhibitor, partial curve, poor fit] | –
CCCCN1CC(O)=C(c2nc(-c3ccc(Br)cc3)cs2)C1=N | inconclusive: 12.6 µM [inhibitor, partial curve, poor fit] | –
O=S(=O)(c1ccc(Cl)cc1)N1CCN(C(=S)Nc2ccc(F)c(Cl)c2)CC1 | inconclusive: 31.6 µM [inhibitor, partial curve, poor fit] | –
COC(=O)c1ccc2nc(-c3cccc(Cl)c3)c(Cc3cccc(F)c3)n2c1 | inactive | –
COc1ccccc1CNC(=O)c1cccc(Nc2nc3ccccc3n3nnnc23)c1 | inactive | –
Nc1cc(N)nc(SCC(=O)NC2CCCCCCC2)n1 | inactive | –
O=C(N/N=C/c1ccc[nH]1)c1ccccc1OCc1ccccc1Cl | inactive | –
O=C(COc1ccccc1Cl)Nc1ccc(C(=O)N2CCCCC2)cc1 | – | inconclusive: -49.1% [inhibitor]
O=C1COc2ccc(C(=O)COC(=O)/C=C/c3cccc(F)c3)cc2N1 | inconclusive: 17.8 µM [inhibitor, partial curve, poor fit] | –
O=C1C=CC(=O)N1c1ccc(N2CCCCC2)cc1 | inconclusive: 39.8 µM [inhibitor, single point] | –
COc1ccc(C(=O)NNC(=S)NC(=O)c2ccco2)cc1 | inconclusive: 25.1 µM [inhibitor, partial curve] | –
COc1ccc(-n2c(SC)nc3sc4c(c3c2=O)CCN(C)C4)cc1 | inconclusive: 3.16 µM [inhibitor, single point] | –
Cc1c(C)n(C)c2ccc(C(=O)NCCCN3CCCCC3)cc12 | inactive | –
CC1(c2ccccc2)CC(C)(C)N2C(=O)C3(C(C#N)=C(N)Oc4cc(O)ccc43)c3cccc1c32 (stereo not given) | inconclusive: 22.4 µM [inhibitor, single point] | –
